# Source: the supplement of paper PMC8728848
# Some of the results follow.
# B1: CLL-1 (Homo sapiens) (protein)
# chain: MWIDFFTYSSMSEEVTYADLQFQNSSEMEKIPEIGKFGEKAPPAPSHVWRPAALFLTLLCLLLLIGLGVLASMFHVTLKIEMKKMNKLQNISEELQRNISLQLMSNMNISNKIRNLSTTLQTIATKLCRELYSKEQEHKCKPCPRRWIWHKDSCYFLSDDVQTWQESKMACAAQNASLLKINNKNALEFIKSQSRSYDYWLGLSPEEDSTRGMRVDNIINSSAWVIRNAPDLNNMYCGYINRLYVQYYHCTYKKRMICEKMANPVQLGSTYFREA
# Key:
# Assay in all cases: glycan array binding signal (z-score within array); higher = stronger binding
# Settings in all cases: glycan notation: IUPAC condensed, linker removed
# [1] = target: Neu5Ac(a2-3)Gal(b1-3)GalNAc(b1-3)Gal(b1-4)GlcNAc
# In short: (§1)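 The binding signal is a Z-score computed within each array and averaged over linkers. Arrays of the same protein sequence at different concentrations or buffers were also averaged together. Data originate from 3228 arrays in the Consortium for Functional Glycomics database, kept only where the protein sequence was available.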
# [2] = target: Neu5Ac(a2-3)Gal(b1-3)GalNAc(b1-4)[Neu5Ac(a2-3)]Gal(b1-4)Glc
# In short: as §1
# [3] = target: Neu5Ac(a2-3)Gal(b1-3)GalNAc6S
# In short: as §1
# [4] = target: Neu5Ac(a2-3)Gal(b1-3)GlcNAc
# In short: as §1
# [5] = target: Neu5Ac(a2-3)Gal(b1-3)GlcNAc6S
# In short: as §1
# [6] = target: Neu5Ac(a2-3)Gal(b1-3)[Fuc(a1-4)]GlcNAc
# In short: as §1
# [7] = target: Neu5Ac(a2-3)Gal(b1-3)[Fuc(a1-4)]GlcNAc(b1-3)Gal(b1-4)[Fuc(a1-3)]GlcNAc
# In short: as §1
# [8] = target: Neu5Ac(a2-3)Gal(b1-3)[Neu5Ac(a2-3)Gal(b1-4)]GlcNAc
# In short: as §1
# [9] = target: Neu5Ac(a2-3)Gal(b1-3)[Neu5Ac(a2-6)]GalNAc
# In short: as §1
# Neu5Ac(a2-3)Gal(b1-4)Glc = target: Neu5Ac(a2-3)Gal(b1-4)Glc
# In short: as §1
# [10] = target: Neu5Ac(a2-3)Gal(b1-4)GlcNAc
# In short: as §1
# [11] = target: Neu5Ac(a2-3)Gal(b1-4)GlcNAc(b1-3)Gal(b1-4)GlcNAc
# In short: as §1
# [12] = target: Neu5Ac(a2-3)Gal(b1-4)GlcNAc(b1-3)Gal(b1-4)GlcNAc(b1-3)Gal(b1-4)GlcNAc
# In short: as §1
# [13] = target: Neu5Ac(a2-3)Gal(b1-4)GlcNAc(b1-3)Gal(b1-4)[Fuc(a1-3)]GlcNAc
# In short: as §1
# [14] = target: Neu5Ac(a2-3)Gal(b1-4)GlcNAc6S
# In short: as §1
# [15] = target: Neu5Ac(a2-3)Gal(b1-4)[Fuc(a1-3)]GlcNAc
# In short: as §1
# [16] = target: Neu5Ac(a2-3)Gal(b1-4)[Fuc(a1-3)]GlcNAc(b1-3)Gal
# In short: as §1
# [17] = target: Neu5Ac(a2-3)Gal(b1-4)[Fuc(a1-3)]GlcNAc(b1-3)Gal(b1-4)GlcNAc
# In short: as §1
# [18] = target: Neu5Ac(a2-3)Gal(b1-4)[Fuc(a1-3)]GlcNAc(b1-3)Gal(b1-4)[Fuc(a1-3)]GlcNAc(b1-3)Gal(b1-4)[Fuc(a1-3)]GlcNAc
# In short: as §1
# [19] = target: Neu5Ac(a2-3)Gal(b1-4)[Fuc(a1-3)]GlcNAc6S
# In short: as §1
# [20] = target: Neu5Ac(a2-3)Gal6S(b1-4)GlcNAc
# In short: as §1
# [21] = target: Neu5Ac(a2-3)Gal6S(b1-4)[Fuc(a1-3)]GlcNAc
# In short: as §1
# Neu5Ac(a2-3)GalNAc = target: Neu5Ac(a2-3)GalNAc
# In short: as §1
# [22] = target: Neu5Ac(a2-3)GalNAc(b1-4)GlcNAc
# In short: as §1
# [23] = target: Neu5Ac(a2-3)[GalNAc(b1-4)]Gal(b1-4)Glc
# In short: as §1
# [24] = target: Neu5Ac(a2-3)[GalNAc(b1-4)]Gal(b1-4)GlcNAc
# In short: as §1
# [25] = target: Neu5Ac(a2-3)[Neu5Ac(a2-6)]GalNAc
# In short: as §1
# Neu5Ac(a2-6)Gal = target: Neu5Ac(a2-6)Gal
# In short: as §1
# Neu5Ac(a2-6)Gal(b1-4)Glc = target: Neu5Ac(a2-6)Gal(b1-4)Glc
# In short: as §1
# [26] = target: Neu5Ac(a2-6)Gal(b1-4)GlcNAc
# In short: as §1
# [27] = target: Neu5Ac(a2-6)Gal(b1-4)GlcNAc(b1-2)Man(a1-3)[Neu5Ac(a2-6)Gal(b1-4)GlcNAc(b1-2)Man(a1-6)]Man(b1-4)GlcNAc(b1-4)GlcNAc
# In short: as §1
# [28] = target: Neu5Ac(a2-6)Gal(b1-4)GlcNAc(b1-3)Gal(b1-4)GlcNAc
# In short: as §1
# [29] = target: Neu5Ac(a2-6)Gal(b1-4)GlcNAc(b1-3)Gal(b1-4)[Fuc(a1-3)]GlcNAc(b1-3)Gal(b1-4)[Fuc(a1-3)]GlcNAc
# In short: as §1
# [30] = target: Neu5Ac(a2-6)Gal(b1-4)GlcNAc6S
# In short: as §1
# Neu5Ac(a2-6)GalNAc = target: Neu5Ac(a2-6)GalNAc
# In short: as §1
# [31] = target: Neu5Ac(a2-6)GalNAc(b1-4)GlcNAc
# In short: as §1
# Neu5Ac(a2-8)Neu5Ac = target: Neu5Ac(a2-8)Neu5Ac
# In short: as §1
# [32] = target: Neu5Ac(a2-8)Neu5Ac(a2-3)Gal(b1-4)Glc
# In short: as §1
# [33] = target: Neu5Ac(a2-8)Neu5Ac(a2-3)[GalNAc(b1-4)]Gal(b1-4)Glc
# In short: as §1
# [34] = target: Neu5Ac(a2-8)Neu5Ac(a2-8)Neu5Ac
# In short: as §1
# [35] = target: Neu5Ac(a2-8)Neu5Ac(a2-8)Neu5Ac(a2-3)Gal(b1-4)Glc
# In short: as §1
# [36] = target: Neu5Ac(a2-8)Neu5Ac(a2-8)Neu5Ac(a2-3)[GalNAc(b1-4)]Gal(b1-4)Glc
# In short: as §1
# [37] = target: Neu5Ac(a2-8)Neu5Ac(a2-8)Neu5Ac(a2-8)Neu5Ac(a2-3)[GalNAc(b1-4)]Gal(b1-4)Glc
# In short: as §1
# Neu5Ac(b1-6)GalNAc = target: Neu5Ac(b1-6)GalNAc
# In short: as §1
# [38] = target: Neu5Ac(b2-6)Gal(b1-4)GlcNAc
# In short: as §1
# [39] = target: Neu5Ac9Ac(a2-6)Gal(b1-4)GlcNAc
# In short: as §1
# [40] = target: Neu5Gc(a2-3)Gal(b1-3)GlcNAc
# In short: as §1
# [41] = target: Neu5Gc(a2-3)Gal(b1-3)[Fuc(a1-4)]GlcNAc
# In short: as §1
# Neu5Gc(a2-3)Gal(b1-4)Glc = target: Neu5Gc(a2-3)Gal(b1-4)Glc
# In short: as §1
# [42] = target: Neu5Gc(a2-3)Gal(b1-4)GlcNAc
# In short: as §1
# [43] = target: Neu5Gc(a2-3)Gal(b1-4)[Fuc(a1-3)]GlcNAc
# In short: as §1
# [44] = target: Neu5Gc(a2-6)Gal(b1-4)GlcNAc
# In short: as §1
# Neu5Gc(a2-6)GalNAc = target: Neu5Gc(a2-6)GalNAc
# In short: as §1
binder,measurement,setting,value
B1,glycan array binding signal (z-score),[1],-0.232
same,glycan array binding signal (z-score),[2],-0.177
same,glycan array binding signal (z-score),[3],-0.072
same,glycan array binding signal (z-score),[4],-0.166
same,glycan array binding signal (z-score),[5],-0.109
same,glycan array binding signal (z-score),[6],1.22
same,glycan array binding signal (z-score),[7],-0.143
same,glycan array binding signal (z-score),[8],-0.187
same,glycan array binding signal (z-score),[9],-0.188
same,glycan array binding signal (z-score),Neu5Ac(a2-3)Gal(b1-4)Glc,-0.159
same,glycan array binding signal (z-score),[10],-0.14
same,glycan array binding signal (z-score),[11],-0.267
same,glycan array binding signal (z-score),[12],2.45
same,glycan array binding signal (z-score),[13],-0.129
same,glycan array binding signal (z-score),[14],-0.124
same,glycan array binding signal (z-score),[15],-0.141
same,glycan array binding signal (z-score),[16],-0.209
same,glycan array binding signal (z-score),[17],-0.23
same,glycan array binding signal (z-score),[18],-0.181
same,glycan array binding signal (z-score),[19],-0.15
same,glycan array binding signal (z-score),[20],-0.159
same,glycan array binding signal (z-score),[21],-0.172
same,glycan array binding signal (z-score),Neu5Ac(a2-3)GalNAc,-0.037
same,glycan array binding signal (z-score),[22],0.114
same,glycan array binding signal (z-score),[23],-0.256
same,glycan array binding signal (z-score),[24],-0.101
same,glycan array binding signal (z-score),[25],-0.261
same,glycan array binding signal (z-score),Neu5Ac(a2-6)Gal,-0.207
same,glycan array binding signal (z-score),Neu5Ac(a2-6)Gal(b1-4)Glc,-0.221
same,glycan array binding signal (z-score),[26],-0.184
same,glycan array binding signal (z-score),[27],-0.141
same,glycan array binding signal (z-score),[28],-0.266
same,glycan array binding signal (z-score),[29],-0.136
same,glycan array binding signal (z-score),[30],0.188
same,glycan array binding signal (z-score),Neu5Ac(a2-6)GalNAc,-0.208
same,glycan array binding signal (z-score),[31],-0.17
same,glycan array binding signal (z-score),Neu5Ac(a2-8)Neu5Ac,-0.289
same,glycan array binding signal (z-score),[32],-0.168
same,glycan array binding signal (z-score),[33],-0.239
same,glycan array binding signal (z-score),[34],-0.267
same,glycan array binding signal (z-score),[35],-0.12
same,glycan array binding signal (z-score),[36],-0.211
same,glycan array binding signal (z-score),[37],-0.059
same,glycan array binding signal (z-score),Neu5Ac(b1-6)GalNAc,-0.172
same,glycan array binding signal (z-score),[38],-0.235
same,glycan array binding signal (z-score),[39],-0.216
same,glycan array binding signal (z-score),[40],-0.069
same,glycan array binding signal (z-score),[41],-0.281
same,glycan array binding signal (z-score),Neu5Gc(a2-3)Gal(b1-4)Glc,-0.229
same,glycan array binding signal (z-score),[42],-0.26
same,glycan array binding signal (z-score),[43],-0.167
same,glycan array binding signal (z-score),[44],-0.231
same,glycan array binding signal (z-score),Neu5Gc(a2-6)GalNAc,-0.107
